Publication PMC9911399, “Two distinct binding modes provide the RNA-binding protein RbFox with extraordinary sequence specificity”
Positions count from the first letter of the chain named. This is one part of the list.

T1: RBFOX1 RRM (Homo sapiens, UniProt Q9NWB1 109-208)
T1 sequence: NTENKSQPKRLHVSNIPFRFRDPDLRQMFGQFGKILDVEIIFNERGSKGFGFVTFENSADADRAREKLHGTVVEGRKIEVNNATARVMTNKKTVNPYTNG

B1: AAGCGAU (DNA:RNA)
RNA: GGGAGACCGGAAUUCAGAUUGUCCAAGCGAUUUAAAUCCCGUCGUAGCCACCA
DNA 1: CAATCTGAATTCCGGTCTCCC
DNA 2: TGGTGGCTACGACGGGATT
B2: UGAAGCA (DNA:RNA)
RNA: B1 RNA with A25U, A26G, G27A, C28A, A30C, U31A
DNA 1: CAATCTGAATTCCGGTCTCCC
DNA 2: TGGTGGCTACGACGGGATT
B3: GGAGUGG (DNA:RNA)
RNA: GGGAGACCGGAAUUCAGAUUGUCCGGAGUGGUUAAAUCCCGUCGUAGCCACCA
DNA 1: CAATCTGAATTCCGGTCTCCC
DNA 2: TGGTGGCTACGACGGGATT
B4: UCCAAGC (DNA:RNA)
RNA: B3 RNA with G25U, G26C, A27C, G28A, U29A, G31C
DNA 1: CAATCTGAATTCCGGTCTCCC
DNA 2: TGGTGGCTACGACGGGATT
B5: UGUGAGG (DNA:RNA)
RNA: B3 RNA with G25U, A27U, U29A
DNA 1: CAATCTGAATTCCGGTCTCCC
DNA 2: TGGTGGCTACGACGGGATT
B6: GUAGCAC (DNA:RNA)
RNA: B3 RNA with G26U, U29C, G30A, G31C
DNA 1: CAATCTGAATTCCGGTCTCCC
DNA 2: TGGTGGCTACGACGGGATT
B7: UUCUCGA (DNA:RNA)
RNA: B3 RNA with G25U, G26U, A27C, G28U, U29C, G31A
DNA 1: CAATCTGAATTCCGGTCTCCC
DNA 2: TGGTGGCTACGACGGGATT
B8: AUAUAGA (DNA:RNA)
RNA: B3 RNA with G25A, G26U, G28U, U29A, G31A
DNA 1: CAATCTGAATTCCGGTCTCCC
DNA 2: TGGTGGCTACGACGGGATT
B9: ACCGGUG (DNA:RNA)
RNA: B1 RNA with A26C, G27C, C28G, A30U, U31G
DNA 1: CAATCTGAATTCCGGTCTCCC
DNA 2: TGGTGGCTACGACGGGATT
B10: CACUGAG (DNA:RNA)
RNA: B1 RNA with A25C, G27C, C28U, U31G
DNA 1: CAATCTGAATTCCGGTCTCCC
DNA 2: TGGTGGCTACGACGGGATT
B11: CUCCCUG (DNA:RNA)
RNA: B1 RNA with A25C, A26U, G27C, G29C, A30U, U31G
DNA 1: CAATCTGAATTCCGGTCTCCC
DNA 2: TGGTGGCTACGACGGGATT
B12: AGGGGGG (DNA:RNA)
RNA: B3 RNA with G25A, A27G, U29G
DNA 1: CAATCTGAATTCCGGTCTCCC
DNA 2: TGGTGGCTACGACGGGATT
B13: CGGGCCG (DNA:RNA)
RNA: B3 RNA with G25C, A27G, U29C, G30C
DNA 1: CAATCTGAATTCCGGTCTCCC
DNA 2: TGGTGGCTACGACGGGATT
B14: CAAGGGU (DNA:RNA)
RNA: B1 RNA with A25C, G27A, C28G, A30G
DNA 1: CAATCTGAATTCCGGTCTCCC
DNA 2: TGGTGGCTACGACGGGATT
B15: ACCUGAA (DNA:RNA)
RNA: B1 RNA with A26C, G27C, C28U, U31A
DNA 1: CAATCTGAATTCCGGTCTCCC
DNA 2: TGGTGGCTACGACGGGATT
B16: ACCCGAU (DNA:RNA)
RNA: B1 RNA with A26C, G27C
DNA 1: CAATCTGAATTCCGGTCTCCC
DNA 2: TGGTGGCTACGACGGGATT
B17: GUCAGAU (DNA:RNA)
RNA: B1 RNA with A25G, A26U, G27C, C28A
DNA 1: CAATCTGAATTCCGGTCTCCC
DNA 2: TGGTGGCTACGACGGGATT
B18: UACUGCC (DNA:RNA)
RNA: B1 RNA with A25U, G27C, C28U, A30C, U31C
DNA 1: CAATCTGAATTCCGGTCTCCC
DNA 2: TGGTGGCTACGACGGGATT
B19: AUAGGCG (DNA:RNA)
RNA: B3 RNA with G25A, G26U, U29G, G30C
DNA 1: CAATCTGAATTCCGGTCTCCC
DNA 2: TGGTGGCTACGACGGGATT
B20: CCCGAGG (DNA:RNA)
RNA: B3 RNA with G25C, G26C, A27C, U29A
DNA 1: CAATCTGAATTCCGGTCTCCC
DNA 2: TGGTGGCTACGACGGGATT

The binders below were run against T1, RBFOX1 RRM (assay: EMSA; HiTS-Eq, 1 nM pool, 10 min; buffer printed only for the single-RNA assays: 10 mM Tris pH 7.5, 150 mM NaCl, 3.4 mM EDTA, 0.001% NP-40, 30 C). Conditions: tags: His6 N-terminal (pET28a); label: 5' 32P.
Method in brief: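 Relative association constants, normalised to the cognate motif, were derived by comparing read counts of each RNA species with those of the control reaction. The RNA sequenced was the free fraction, separated by 8% native PAGE after a 10 min equilibration in 50 µL of 1 nM 5′-radiolabelled RNA (7 randomized nucleotides) with increasing concentrations of purified wild-type or mutant RbFox RRM.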

| Binder | binding signal |
| --- | --- |
| B1 | 0.00378 KA relative to UGCAUGU |
| B2 | 0.0172 KA relative to UGCAUGU |
| B3 | 0.0151 KA relative to UGCAUGU |
| B4 | 0.0037 KA relative to UGCAUGU |
| B5 | 0.0123 KA relative to UGCAUGU |
| B6 | 0.0131 KA relative to UGCAUGU |
| B7 | 0.0124 KA relative to UGCAUGU |
| B8 | 0.00586 KA relative to UGCAUGU |
| B9 | 0.0128 KA relative to UGCAUGU |
| B10 | 0.00996 KA relative to UGCAUGU |
| B11 | 0.00686 KA relative to UGCAUGU |
| B12 | 0.0198 KA relative to UGCAUGU |
| B13 | 0.0351 KA relative to UGCAUGU |
| B14 | 0.00279 KA relative to UGCAUGU |
| B15 | 0.00507 KA relative to UGCAUGU |
| B16 | 0.00366 KA relative to UGCAUGU |
| B17 | 0.0106 KA relative to UGCAUGU |
| B18 | 0.0127 KA relative to UGCAUGU |
| B19 | 0.01 KA relative to UGCAUGU |
| B20 | 0.0116 KA relative to UGCAUGU |
